In PubChem BioAssay AID2100 (National Center for Advancing Translational Sciences (NCATS), 2009):
About 1,200 (0.4%) of roughly 300,000 compounds were called active. Inconclusive means that the source gave no clear call. Such entries were picked first, then a sample of the others. The call rests on the fitted dose curve; in most records, active means well fitted inhibition curve with a large enough effect; inconclusive means small, poorly fitted or top-dose-only effect, or another doubt; inactive means no such curve, though single readings can be large or run the other way. A potency beside an inconclusive call is a rough fit, not a confirmed value.

molecular target: Lysosomal alpha-glucosidase (Homo sapiens) (UniProt P10253); assay: qHTS Assay for Inhibitors and Activators of Human alpha-Glucosidase Cleavage of Glycogen; conditions: recombinant GAA, glycogen substrate, Amplex Red glucose oxidase fluorescence; activity change, negative = inhibition: at 76.4 µM (top of the series) unless noted;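 on activity change, negative = inhibition: 0% = full enzyme reaction and -100% = no-enzyme basal signal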
Method in brief: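 Natural-substrate format: glycogen cleavage by 4 nM human enzyme, glucose read by Amplex Red coupling (Ex 573, Em 610 nm). Normalized to enzyme and no-enzyme controls.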
Potency means the concentration at half of the fitted maximal effect.

Structure (SMILES) | Potency | activity change, negative = inhibition
Cc1ccc(Nc2c(-c3cccnc3)nc3ccc(Br)cn23)cc1 | inconclusive: 15.8 µM [inhibitor, partial curve] | 
CN(C)S(=O)(=O)c1cccc(NC(=S)N/N=C/c2ccc(O)c(O)c2O)c1 | inconclusive: 8.91 µM [inhibitor, partial curve] | 
Clc1cccc(N/N=C/c2ccc(N3CCOCC3)cc2)c1 | inconclusive: 31.4 µM [inhibitor, single point] | 
CCC(=O)NNc1nc2c(Cl)cccc2s1 | active: 6.26 µM | 
O=C(O)c1cc(NCc2ccccc2)ccc1N1CCOCC1 | inconclusive: 7.03 µM [inhibitor, partial curve] | 
O=[N+]([O-])c1ccc(N/N=C/c2cccc(O)c2O)cc1 | inconclusive: 3.55 µM [inhibitor, full curve] | 
Oc1ccc(/C=N/Nc2nc(-c3ccccc3F)nc3ccccc23)c(O)c1 | inconclusive: 11.2 µM [inhibitor, partial curve] | 
COC(=O)c1nnn(CC(=O)Nc2cccc(OC)c2)c1C(=O)OC | inconclusive: 7.03 µM [inhibitor, single point] | 
Cc1cccc(C)c1Nc1c(-c2ccc(N3CCOCC3)cc2)nc2cnccn12 | inconclusive: 14.1 µM [inhibitor, partial curve] | 
CCOC(=O)CCCc1ccc(/C(C)=N/NC(N)=S)cc1 | inconclusive: 39.8 µM [inhibitor, single point] | 
O=C(O)c1cccc(S(=O)(=O)Nc2ccc(O)cc2Sc2nc3ccccc3s2)c1 | inconclusive: 14.1 µM [inhibitor, partial curve] | 
CCc1ccc(NC(=O)CSc2nc3n[nH]c(C)c3c(=N)n2-c2cccc(OC)c2)cc1 | inactive | 
COc1cc(/C=N/NC(=O)C2CCN(CC(O)COCc3ccccc3)CC2)ccc1O (stereo unspecified) | inconclusive: 39.8 µM [inhibitor, single point] | 
COCCNC(=O)CC(=O)N/N=C/c1ccc(C(=O)OC)cc1 | inactive | 
CN(C)c1ccc(CNC(=O)c2cc(S(=O)(=O)N3CCCC3)cn2C)cc1 | inconclusive: 11.2 µM [inhibitor, full curve] | 
O=C(O)c1cc(-c2ccc(/C=N/NC(=S)Nc3ccccc3)o2)ccc1Cl | inconclusive: 22.4 µM [inhibitor, partial curve] | 
CC(=C/c1ccccc1)/C=N/n1c(-c2ccncc2)n[nH]c1=S | inconclusive: 44.7 µM [inhibitor, single point] | 
COc1ccc(Br)cc1CNc1ccc(O)cc1 | inconclusive: 7.88 µM [inhibitor, full curve] | 
O=C1/C(=N\S(=O)(=O)c2cccs2)C([n+]2cccc(Cc3ccccc3)c2)=C([O-])c2ccccc21 | inactive | 
COc1ccccc1C(=O)Nc1nc(-c2cccs2)c(NC(C)=O)s1 | inconclusive: 10 µM [inhibitor, partial curve, poor fit] | 
Cc1cccc(OCc2ccc(-c3nc(C#N)c(NCc4cccnc4)o3)o2)c1 | inconclusive: 28.2 µM [inhibitor, single point] | 
COc1ccc(S(=O)(=O)N2CCc3ccccc3C2)cc1OC | inactive | 

Structure (SMILES) | Potency | activity change, negative = inhibition
S=C1SCN(Cc2cccnc2)CN1Cc1cccnc1 | inconclusive: 19.8 µM [inhibitor, single point] | 
O=C(NNc1ccc(-c2csnn2)cc1)c1cc(Cl)cc(Cl)c1 | inconclusive: 25.1 µM [inhibitor, partial curve] | 
O=C(COc1ccc2ccccc2c1)Nc1nccs1 | inactive | 
O=C(Cn1nc(Cc2cccnc2)c2ccccc2c1=O)N1CCN(C(=O)c2ccco2)CC1 | inconclusive: 14.1 µM [inhibitor, full curve] | 
C(=N\Nc1ccccn1)/c1c[nH]c2ccccc12 | active: 35.5 µM | 
Brc1ccc(-c2csc(N/N=C/c3ccco3)n2)cc1 | inconclusive: 39.8 µM [inhibitor, single point] | 
Cc1ccc(NC(=O)Nc2sc3nc4n(c(=O)c3c2C)CCC(C)CC4)c(Cl)c1 (stereo unspecified) | inconclusive: 6.31 µM [inhibitor, full curve, poor fit] | 
COC(=O)c1[nH]c2ccc(F)cc2c1NS(=O)(=O)c1ccc(OC)cc1OC | inconclusive: 31.6 µM [inhibitor, single point] | 
Cc1nc(N2CCC3(CC2)OCCO3)c2nnn(Cc3ccccc3F)c2n1 | inconclusive: 3.52 µM [inhibitor, single point] | 
NNC(=O)/C=C/c1ccc(Cl)cc1Cl | inconclusive: 20 µM [inhibitor, single point] | 
CCOC(=O)C(=NCC1CCCO1)NNc1ccccc1Cl (stereo unspecified) | inconclusive: 50.1 µM [inhibitor, partial curve] | 
CCOc1ccc(NC(=O)CN2C(=O)C(C)SC(C)C2=O)cc1 (stereo unspecified) | inconclusive: 50.1 µM [inhibitor, single point] | 
CCOc1cc(C(c2c(C)[nH][nH]c2=O)c2c(C)[nH][nH]c2=O)ccc1O | inconclusive: 25.1 µM [inhibitor, partial curve] | 
CCOC(=O)CCC(=O)NCc1ccc2c(c1)cc(C)n2C | inconclusive: 35.2 µM [activator, single point] | 
CCc1c(C)c2ccc(OC(C)C(=O)NC(Cc3c[nH]c4ccc(O)cc34)C(=O)O)c(C)c2oc1=O (stereo unspecified) | inconclusive: 3.98 µM [inhibitor, partial curve] | 
Cc1ccc(NC(=S)NCCc2ccc(F)cc2)c(C)c1 | inconclusive: 9.92 µM [inhibitor, partial curve] | 
COc1ccc(CCNC(=O)c2cc3sccc3n2Cc2ccc(Cl)cc2)cc1OC | inactive | 
O=C(NNS(=O)(=O)c1ccccc1)c1csc(-c2cccnc2)n1 | inconclusive: 39.8 µM [inhibitor, single point] | 
COc1cc(/C=N/NC(=O)c2ccc(CSc3nncn3C)cc2)cc(OC)c1O | inconclusive: 35.5 µM [inhibitor, partial curve, poor fit] | 
Cc1cc(C)n(CC(C)NCc2cn[nH]c2-c2ccc(C)c(C)c2)n1 (stereo unspecified) | inactive | 
O=C(NCCCN1CCOCC1)c1cccs1 | inconclusive: 7.03 µM [inhibitor, full curve, poor fit] | 
COc1cc(/C=C/C(=O)OCC(=O)Nc2ccc(S(=O)(=O)N3CCCC3)cc2)ccc1O | inconclusive: 22.4 µM [inhibitor, partial curve] | 

Structure (SMILES) | Potency | activity change, negative = inhibition
C=CCNC(=S)NNC(=O)c1ccc(=O)n(Cc2ccc(Cl)cc2Cl)c1 | inconclusive: 39.8 µM [inhibitor, single point] | 
O=C(O)c1ccccc1C(=O)NNc1ccc(F)cc1F | inconclusive: 44.7 µM [inhibitor, single point] | 
CCOc1ccc(CCNC(=O)c2ccc(-c3nc(COc4ccc(C)cc4)c(C)o3)cc2)cc1 | inactive | 
Cc1cc(NN)nc(NS(=O)(=O)c2ccccc2Cl)n1 | inconclusive: 5.58 µM [inhibitor, partial curve] | 
CCOC(=O)CN=C1CC(C)(C)CC2=C1Sc1ncnc(N(C)C)c1N2 | active: 28 µM | 
N#Cc1c(/N=C/c2ccco2)sc2c1CCCCC2 | inconclusive: 19.8 µM [inhibitor, partial curve] | 
CN(C)c1ccc(C(=O)Nc2cc(C(F)(F)F)ccc2-n2cncn2)cc1 | inconclusive: 7.94 µM [inhibitor, single point] | 
COc1cc(NC(=S)NNC(=O)CC(C)C)c(OC)cc1Cl | inconclusive: 15.8 µM [inhibitor, partial curve] | 
Cc1nnc(N/N=C/c2ccc(-c3ccccc3F)o2)n1N | inconclusive: 12.6 µM [inhibitor, partial curve] | 
COc1cc2c(cc1OC)C1O[C@](CCCCN3C(=O)c4ccccc4C3=O)(C2)OC2=C1C(=O)CC(C)(C)C2 |  | inactive: -6.93% [at 15.3 µM]
NS(=O)(=O)c1ccc(N/N=C/c2ccc(O)c(O)c2O)c([N+](=O)[O-])c1 | inconclusive: 9.92 µM [inhibitor, partial curve] | 
COC(=O)c1c(C)[nH]c(/C=N/Nc2ccccc2)c1C | inconclusive: 50.1 µM [inhibitor, single point] | 
CN1CCC(=NNc2ncnc3sc4c(c23)CCCC4)CC1 | inconclusive: 22.2 µM [activator, partial curve] | 
NNc1ccc(S(=O)(=O)N2CCCCC2)cn1 | inconclusive: 20 µM [inhibitor, partial curve] | 
COc1cccc(/C=N/N2CCN(C3c4ccccc4-c4ccccc43)CC2)c1O | inconclusive: 28.2 µM [inhibitor, single point] | 
Clc1ccc(-c2nc3cnccn3c2NC2CCCC2)cc1 | inconclusive: 24.9 µM [inhibitor, single point] | 
Cc1nn(CCC(=O)NNC(=S)Nc2ccccc2)c(C)c1Br | inconclusive: 31.6 µM [inhibitor, single point] | 
COc1cc(C2CC(=O)c3cnc(N)nc3C2)cc(OC)c1OC (stereo unspecified) | inconclusive: 5.01 µM [inhibitor, partial curve] | 
N=c1c(S(=O)(=O)c2ccc(Cl)cc2)cc2c(=O)n3ccccc3nc2n1C1CCCC1 | inactive | 
Nc1nc(C2CC2)c(Sc2sc(N)nc2C2CC2)s1 | active: 6.31 µM | 
O=C(COc1ccc(Cl)cc1Cl)Nn1c(=S)[nH]c2ncccc2c1=O | inconclusive: 15.8 µM [inhibitor, partial curve] | 
O=C(OCCCN1CCOCC1)c1ccc(O)c(O)c1 | inconclusive: 25.1 µM [inhibitor, partial curve] | 
